According to PubChem BioAssay AID1919017 (Molecular Pharmacology Branch, DTP, NCI, 2023):
The source holds more than one record for some entries. The list is limited to them. The source may hold further records. Values that stand side by side repeat one measurement across runs, samples, wells, individuals or studies. Counts like (3×) give the number of equal values in this list.

System: SW1271 complex spheroids with HUVEC/MSC, growth, % test/control
Test: Anticancer human tumor SW1271 cell line growth inhibition [AhR];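 note: spheroids exposed to agents for 7 days before readout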
Conditions: for viability, T/C: stronger effect = lower value; for IC50: compound alone
Description: Multicellular complex tumor spheroid response to aryl hydrocarbon receptor antagonists in combination with a variety of drugs and investigational agents in selected tumor cell lines
The current study was undertaken to assess response to aryl hydrocarbon receptor antagonists in combination with standard-of-care drugs and investigational agents in solid tumor complex spheroid models. Complex spheroids include a stromal component modeled by human endothelial cells (HUVEC) and fibroblasts modeled by human mesenchymal stem cells (MSCs). The concentration ranges selected for each drug and investigational agent were based upon clinically achievable concentrations if the clinical Cmax of the agent was known.
Compounds. The drugs and investigational agents: BAY 2416964 (NSC825713), GNF351 (NSC835774), CH-223191 (NSC835775), CPI-455 (NSC825282), aza-TdCyd (NSC777586), decitabine (NSC127716), belinostat (NSC758774), entinostat (NSC756642), pevonedistat (NSC761192), tazemetostat (NSC777109), talazoparib (NSC765396), olaparib (NSC753686), selinexor (NSC780203), nedisertib (M3814, NSC802822), bortezomib (NSC756655), venetoclax (NSC766270), doxorubicin (NSC123127), elimusertib (BAY189344, NSC800525), ceralasertib (AZD6738, NSC777638), TAK-243 (NSC785004), alisertib (NSC759677), etoposide (NSC141540), topotecan (NSC609699), eribulin (NSC707389), gemcitabine (NSC613327), carboplatin (NSC241240), cisplatin (NSC119875), and SN-38 (NSC673596) were obtained from the National Cancer Institute (NCI) Developmental Therapeutics Program Chemical Repository (32). The FDA-approved anticancer drug set is available from the Developmental Therapeutics Program at https://dtp.cancer.gov/organization/dscb/obtaining/available plates.htm. […] The stock solutions were prepared in dimethyl sulfoxide (DMSO, Sigma-Aldrich, St. Louis, MO, cat. D2650), except for the platinum compounds which were prepared in saline (Quality Biological, Gaithersburg, MD, cat. 114-055-101), at 800-fold the tested concentration and stored at -70 degrees C prior to their use. All drugs and investigational agents were tested over a range starting from a high concentration at or near the clinical Cmax and decreasing in half-log increments. If the clinical Cmax for an agent had not been determined, the highest concentration tested was 10 microM (Table 1).
Cell Culture. All cells were maintained in an incubator at 37 degrees C and 5% CO2 with 95% humidity. The PDC lines were cultured according to standard operating procedures established by the NCI PDMR (https://pdmr.cancer.gov). Briefly, all PDCs were thawed and cultured in Matrigel-coated flasks prepared with a working solution of 1X Ham's F-12 nutrient mix, without supplementation (Invitrogen, Waltham, MA, cat. 11765054), 100 U/mL penicillin-streptomycin (Invitrogen, cat. 15140122), and 2.5% Matrigel (Corning Inc., Corning, NY, cat. 354248) for the first three passages. All PDCs were cultured in complete DMEM/F-12 media containing advanced DMEM/F-12 (Invitrogen, cat. 12634028), 4.9% defined fetal bovine serum, heat inactivated (HyClone Laboratories Inc., Logan, UT, cat. SH30070.03HI), 389 ng/mL hydrocortisone (Sigma-Aldrich, cat. H4001), 9.7 ng/mL human EGF recombinant protein (Invitrogen, cat. PHG0313), 23.4 microg/mL adenine (Sigma-Aldrich, cat. A2786), 97.3 U/mL penicillin-streptomycin (Invitrogen, cat. 15140122), 1.9 mM L-glutamine (Invitrogen, cat. 25030081), and 9.7 microM Y-27632 dihydrochloride (Tocris Bioscience, Bristol, United Kingdom, cat. 1254). The PDCs were cultured in complete DMEM/F12 media without 10 microM Y-27632 dihydrochloride for at least two passages prior to the screen. The established cell lines NCI-H1341 and […] were cultured in DMEM/F-12, HEPES (Invitrogen, cat. 11330032), 5% defined fetal bovine serum (HyClone Laboratories Inc., cat. SH30070.03), ITS premix universal culture supplement [insulin (5 microg/mL), transferrin (5 microg/mL), and selenious acid (5 ng/mL)] […]

Row | SMILES | viability, T/C (compound alone 0.316 µM) | viability, T/C (compound alone 1 µM) | viability, T/C (compound alone 3.16 µM) | viability, T/C (compound alone 10 µM) | IC50 | viability, T/C (compound alone 0.1 µM) | IC50 (run of 08/16/2022)
1 | CC(CO)NC(=O)c1cc(-c2ccc(Cl)cc2)nn(-c2cnn(C)c2)c1=O (configuration not stated) | 80.2, 82, 89.5, 81.1, 105, 78.8, 76.6, 106, 92.8, 87.2, 117, 91.7, 113, 89, 79.6, 92.1, 71.8, 92.3, 95, 93.2, 96% | 105, 77.6, 80.1, 78.3, 92.7, 83.8, 88.5, 73.5, 81.5, 79.7, 97.4, 94, 94.6, 85, 78.8, 107, 82.3, 97.7, 93.6, 67, 85.3% | 77.2, 78.4, 81.9 (2×), 80.6, 91.4, 71.3, 85.9, 92.8, 84.2, 70.8, 61.8, 89.3, 84.4, 88.9, 92.3, 85.6, 79.1, 75.2% | 66.6, 77, 69.2, 70.2, 76.3, 69.3, 74, 59.8, 71.7, 75.9, 67.5, 78.9, 69, 55, 76.6, 81.9, 65.2, 66.3, 68.4% |  |  | 
2 | COc1cccc2c1C(=O)c1c(O)c3c(c(O)c1C2=O)CC(O)(C(=O)CO)CC3OC1CC(N)C(O)C(C)O1 (configuration not stated) |  |  |  |  | 170 nM, 342 nM, < 31.6 nM |  | 
3 | Nc1ccn(C2OC(CO)C(O)C2(F)F)c(=O)n1 (configuration not stated) |  |  |  |  | 10 µM, > 10 µM, < 31.6 nM |  | 
4 | COc1cc(C2c3cc4c(cc3C(OC3OC5COC(C)OC5C(O)C3O)C3COC(=O)C23)OCO4)cc(OC)c1O (configuration not stated) |  |  |  |  | 10 µM, > 10 µM, 215 nM |  | 
5 | Cc1cncc(-c2nc(NCCc3c[nH]c4ccccc34)c3ncn(C(C)C)c3n2)c1 | 112, 102, 83.7, 97, 86.9, 100, 79.9, 93.7, 92.4, 78.2, 108, 111, 98.5, 105, 96.3, 106, 99.1, 86.2, 88.2, 95.5% | 112, 104, 77.8, 95.4 (2×), 103, 111, 98.6, 84, 92.9, 91.2, 98.3, 96.2, 97.3, 83.5, 89.2, 102, 94.6, 89.9, 97.8% | 111 (2×), 130, 83.1, 104, 105, 85.9, 101 (2×), 95.8, 94.7, 102, 103, 92.4, 107, 99, 86.5, 95.2, 96.2, 84.6% |  |  | 110, 101 (2×), 107 (2×), 78.1, 89.4, 98.2, 76.6, 109, 89.8, 96.3, 99.5, 104, 97.3, 83.8, 108, 85.7, 88.1, 89% | > 10 µM, 8.5 µM, 7.53 µM, 9.01 µM, 8.68 µM, 8.36 µM, 8.83 µM, 9.08 µM, 8.59 µM, 9.2 µM, 8.66 µM, 8.6 µM, 9.94 µM, 6.51 µM, 9.97 µM
6 | Cc1ccccc1N=Nc1ccc(NC(=O)c2ccnn2C)c(C)c1 | 91.5, 69.5, 73.2, 65.6, 121, 101, 79.8, 88.4, 105, 93.4, 96.1, 82.6, 96.2, 108, 90.1, 107, 110, 90.7, 100, 89.9% | 101, 81.8, 77.3, 77.7, 103 (3×), 77.5, 80, 99.3, 110, 108, 94.4, 88, 87, 104, 86.8, 114, 90.7, 90.9% | 90.7, 66.8, 78.3, 84.7, 95.7, 73.9, 85.4, 91.5, 93.2, 96.2, 88.3, 87.7, 114, 101 (2×), 118, 105, 102, 95.6, 92.1% | 100, 65.8, 69.3, 64.2, 94.1, 70.5, 71.3, 88.8, 89.3, 101, 113, 82.1, 84.3, 99.1, 96.9, 87.8, 94.3, 97.3, 90.5, 85.2% |  | 89.5 (2×), 73.8, 78.6, 60.8, 86.3 (2×), 82.5, 82.9, 107, 93.1, 108 (2×), 102, 109, 106, 115, 99.5, 111, 99.6% | 
